Results are given in words; binding and its absence hold for the method and conditions named. In cells and extracts the contact can be indirect. Some results given as binding are weak or reduced against the parent protein; the word gives no strength. For some of these results: Where a sequence is shown, tags or fusion partners need not be part of it.

The chains behind the UniProt entries cited, without tags or fusion partners. Where a name states a change or a piece, a line headed by the entry shows the natural chain unless it says otherwise.
UniProt Q14145: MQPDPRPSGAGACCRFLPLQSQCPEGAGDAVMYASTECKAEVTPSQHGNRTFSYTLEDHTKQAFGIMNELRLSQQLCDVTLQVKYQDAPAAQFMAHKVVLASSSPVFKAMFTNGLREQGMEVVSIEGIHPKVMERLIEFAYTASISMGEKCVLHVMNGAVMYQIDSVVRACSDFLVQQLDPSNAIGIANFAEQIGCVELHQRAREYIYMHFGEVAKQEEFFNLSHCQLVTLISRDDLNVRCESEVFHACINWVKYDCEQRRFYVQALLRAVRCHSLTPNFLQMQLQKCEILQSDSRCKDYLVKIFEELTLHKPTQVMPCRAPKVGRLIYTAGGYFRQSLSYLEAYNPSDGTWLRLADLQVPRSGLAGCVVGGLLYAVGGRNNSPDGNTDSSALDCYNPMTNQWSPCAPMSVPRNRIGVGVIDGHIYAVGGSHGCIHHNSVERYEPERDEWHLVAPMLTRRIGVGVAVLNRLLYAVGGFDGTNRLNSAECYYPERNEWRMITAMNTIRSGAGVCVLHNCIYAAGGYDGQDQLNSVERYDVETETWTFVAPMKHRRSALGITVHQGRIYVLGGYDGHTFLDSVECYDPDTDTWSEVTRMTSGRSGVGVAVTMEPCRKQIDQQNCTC
UniProt Q16236: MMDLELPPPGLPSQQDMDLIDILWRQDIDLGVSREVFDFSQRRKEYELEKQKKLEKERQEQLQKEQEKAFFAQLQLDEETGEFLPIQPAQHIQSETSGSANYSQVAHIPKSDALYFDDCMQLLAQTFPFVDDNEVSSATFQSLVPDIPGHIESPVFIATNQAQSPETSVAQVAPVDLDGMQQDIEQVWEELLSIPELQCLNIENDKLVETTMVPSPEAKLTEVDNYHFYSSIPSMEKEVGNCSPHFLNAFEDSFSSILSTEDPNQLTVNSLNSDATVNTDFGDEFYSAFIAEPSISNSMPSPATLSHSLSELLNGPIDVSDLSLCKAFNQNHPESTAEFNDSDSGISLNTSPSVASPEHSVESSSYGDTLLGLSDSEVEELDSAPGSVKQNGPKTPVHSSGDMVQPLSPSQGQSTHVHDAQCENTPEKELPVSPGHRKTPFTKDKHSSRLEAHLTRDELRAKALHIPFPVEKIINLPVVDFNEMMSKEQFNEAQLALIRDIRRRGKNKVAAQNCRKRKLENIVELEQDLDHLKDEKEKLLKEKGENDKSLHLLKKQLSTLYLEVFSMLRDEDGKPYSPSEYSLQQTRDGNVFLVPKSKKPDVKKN

In test [1] the target is Nestin-ESGA (1417E replaced by 1417A) (UniProt P48681). As to the kind of experiment: co-IP; Myc-Nestin or its mutants transfected into NSCLC cells; whole-cell lysates in IP lysis buffer immunoprecipitated with anti-Myc and Protein G magnetic beads, overnight at 4 °C; blotted for endogenous proteins.
In a further test the target is Myc-Nestin (UniProt P48681). Described as above.
The next test concerns the target Flag-tagged Keap1 (UniProt Q14145). As to the kind of experiment: co-IP; truncated Myc-tagged Nestin proteins co-expressed with Flag-tagged Keap1 in HEK293FT cells; immunoprecipitation with Protein G beads and an anti-Flag antibody.
The target of test [2] is Kelch-like ECH-associated protein 1 (Keap1) G333C, endogenous in A549 (human (endogenous in A549)) (UniProt Q14145). Description: co-IP; endogenous proteins; NSCLC whole-cell lysates immunoprecipitated with anti-Keap1, blotted with anti-Nestin, anti-Keap1 and anti-Nrf2; also control or Nestin-knockdown cells treated with 10 μM MG132 for 4 h.
For test [3], the target named is Kelch-like ECH-associated protein 1 (Keap1), wild type, endogenous in H1299 (human (endogenous in H1299)) (UniProt Q14145). Described as above.

As to “Kelch-like ECH-associated protein 1 (Keap1) G333C, endogenous in A549 (from UniProt Q14145 1-624)”, the binding result in test [1] is recorded as “no binding”; in the test with Myc-Nestin, “binds”.
As for “NF-E2-related factor 2 (Nrf2), endogenous (from UniProt Q16236 1-605)”, the binding entry with Myc-Nestin is recorded as “no binding”.
In the case of “Myc-Nestin full-length (N1-1621) (from UniProt P48681 1-1621)”, in the test with Flag-tagged Keap1, the binding entry is given as “binds”.
Regarding “Kelch-like ECH-associated protein 1 (Keap1), wild type, endogenous in H1299 (from UniProt Q14145 1-624)”, the binding result in test [1] is reported as “no binding”; in the test with Myc-Nestin, “binds”.
“Nestin (endogenous) (from UniProt P48681 1-1621)”: the binding result in test [2] and in test [3] was “binds” throughout.

B1: Myc-Nestin (1295-1621) (domain or fragment, UniProt P48681 1295-1621)
chain: LPDSTPLGFYLRSPTSPRWDPTGEQRPPPQGETGKEGWDPAVLASEGLEAPPSEKEEGEEGEEECGRDSDLSEEFEDLGTEAPFLPGVPGEVAEPLGQVPQLLLDPAAWDRDGESDGFADEEESGEEGEEDQEEGREPGAGRWGPGSSVGSLQALSSSQRGEFLESDSVSVSVPWDDSLRGAVAGAPKTALETESQDSAEPSGSEEESDPVSLEREDKVPGPLEIPSGMEDAGPGADIIGVNGQGPNLEGKSQHVNGGVMNGLEQSEEVGQGMPLVSEGDRGSPFQEEEGSALKTSWAGAPVHLGQGQFLKFTQREGDRESWSSGED
B1: the binding result with Flag-tagged Keap1 is on record as “binds”.

B2: Myc-Nestin (641-1621) (domain or fragment, UniProt P48681 641-1621)
chain: GNLETFLFPGTENQELVSSLQENLESLTALEKENQEPLRSPEVGDEEALRPLTKENQEPLRSLEDENKEAFRSLEKENQEPLKTLEEEDQSIVRPLETENHKSLRSLEEQDQETLRTLEKETQQRRRSLGEQDQMTLRPPEKVDLEPLKSLDQEIARPLENENQEFLKSLKEESVEAVKSLETEILESLKSAGQENLETLKSPETQAPLWTPEEINQGAMNPLEKEIQEPLESVEVNQETFRLLEEENQESLRSLGAWNLENLRSPEEVDKESQRNLEEEENLGKGEYQESLRSLEEEGQELPQSADVQRWEDTVEKDQELAQESPPGMAGVENEDEAELNLREQDGFTGKEEVVEQGELNATEEVWIPGEGHPESPEPKEQRGLVEGASVKGGAEGLQDPEGQSQQVGAPGLQAPQGLPEAIEPLVEDDVAPGGDQASPEVMLGSEPAMGESAAGAEPGPGQGVGGLGDPGHLTREEVMEPPLEEESLEAKRVQGLEGPRKDLEEAGGLGTEFSELPGKSRDPWEPPREGREESEAEAPRGAEEAFPAETLGHTGSDAPSPWPLGSEEAEEDVPPVLVSPSPTYTPILEDAPGPQPQAEGSQEASWGVQGRAEALGKVESEQEELGSGEIPEGPQEEGEESREESEEDELGETLPDSTPLGFYLRSPTSPRWDPTGEQRPPPQGETGKEGWDPAVLASEGLEAPPSEKEEGEEGEEECGRDSDLSEEFEDLGTEAPFLPGVPGEVAEPLGQVPQLLLDPAAWDRDGESDGFADEEESGEEGEEDQEEGREPGAGRWGPGSSVGSLQALSSSQRGEFLESDSVSVSVPWDDSLRGAVAGAPKTALETESQDSAEPSGSEEESDPVSLEREDKVPGPLEIPSGMEDAGPGADIIGVNGQGPNLEGKSQHVNGGVMNGLEQSEEVGQGMPLVSEGDRGSPFQEEEGSALKTSWAGAPVHLGQGQFLKFTQREGDRESWSSGED
In the case of B2, the binding entry with Flag-tagged Keap1 is recorded as “binds”.

The values are drawn from paper PMC6834667.
